Sequences with one replicate were seen in a single cluster, so their values are uncertain.
System: ATP
Assay: switch fluorescence ratio, 500 uM ATP over buffer (Cy3 cluster intensity, sum of 5 cycles each) (fold (ratio)); higher = stronger signal-on switching upon ATP binding; sequences stand for … in TCGTCGGCAGCGTCAGATGTGTATAAGAGACAGTTTTTTTTTTTTTTTTTTTTTTTTT…TC
Details: aptamer strand: ATP DNA aptamer (quencher-CACCTGGGGGAGTATTGCGGAGGAAGG + anchor), 100 nM annealed; ATP concentration: 500 uM; one replicate
How it was run: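 For every switch-domain sequence, the fluorescence ratio is the mean of per-cluster values, each being summed target-cycle Cy3 intensity over summed buffer-cycle Cy3 intensity. Clusters outside 100-1000 RFU were excluded. On a modified Illumina MiSeq flow-cell, the Cy3-labelled switching-strand clusters were annealed to 100 nM quencher-labelled ATP aptamer, imaged in selection buffer and then after 15 min with 500 uM ATP at 22 °C. Five such cycles were run, with NaOH stripping and re-annealing between them.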
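Further: ATP exposure 15 min at 22 °C before imaging.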

Row | Sequence | switch fluorescence ratio
1 | GGCGTAGTCC | 0.972
2 | TCGTAGCCTA | 1.08
3 | ACTATTGGT | 1.03
4 | CAGGAGCGTG | 1.02
5 | GTTGTTTAGA | 0.965
6 | AGTGAAGGTG | 1.28
7 | CCGACTTGTC | 1.12
8 | GACTACGAGT | 1.06
9 | TTCTATAGCG | 1.02
10 | ATAGTGTACC | 1.07
11 | TGACCGGGC | 1.05
12 | CTAGCGTCGT | 1
13 | GTTTAAATGC | 1.13
14 | GCACGCCGCG | 1.08
15 | CCGGAGAGTA | 1.94
16 | TAGGGGCAAA | 1.03
17 | GATTCTTTCG | 0.938
18 | CAGTTATCCC | 1.04
19 | AACGCGAGGG | 1.01
20 | GAGAGATACC | 1.05
21 | AAAGTACTGC | 1.15
22 | AGTGTGCAAA | 1.03
23 | AGTAATTTGA | 1.05
24 | AGGATTCGTC | 1.01
25 | GGTCGCTATC | 1.04

Row | Sequence | switch fluorescence ratio
26 | GGTGCCTCGT | 1.04
27 | TTAAGGGTAG | 0.991
28 | ACGTCGTTG | 0.971
29 | TAATCTTAAA | 1.06
30 | TACGGTTATA | 1.07
31 | TGTTGGGGCA | 0.98
32 | AAATTCGGAA | 1
33 | GGTGGCGTTC | 0.984
34 | AGCGGCAGAC | 1.28
35 | TCGATTGGAC | 1.06
36 | TAATGTACAC | 1.05
37 | ACATAGCGAT | 1.96
38 | AACGATCGTA | 0.99
39 | AGGCCTCCTT | 1
40 | AATTACTGAT | 0.992
41 | ATTTCCTGTT | 0.991
42 | GCTTTTGTG | 0.994
43 | ACTCACGATA | 1.5
44 | CTGGGTGAGG | 1.01
45 | CAACACATGC | 1.21
46 | ACGCCCAGTT | 1.06
47 | GAACCCATCT | 1.01
48 | TGTGGTGCAC | 1
49 | ATCAATGGGG | 0.969
50 | GGAGTGGTG | 0.978

Row | Sequence | switch fluorescence ratio
51 | CGCTCAGCGG | 1.02
52 | CAGTCCCGGC | 1.03
53 | TAAGTTAAGT | 1.02
54 | TGGTAAAGTC | 1.01
55 | GGGGCTTTCA | 1.03
56 | TGAGGGGCCC | 1.12
57 | ACTGACGAAC | 1.83
58 | GTTGGTGGGC | 0.883
59 | GCCCTGATGT | 1.09
60 | TTTCTCATCA | 0.963
61 | TTACTGTGTC | 0.98
62 | GGTCGTCACA | 0.971
63 | CAGAGGGTGA | 1.07
64 | TCTGTGCGAT | 1.5
65 | TTAACTAACT | 1.05
66 | TTGCGAAAAG | 1.02
67 | ATGACTATTG | 0.995
68 | TGTCAGCCTT | 1.01
69 | GAATTAGAGC | 0.917
70 | TCAGGCTTTT | 0.989
71 | GAGAACTTGC | 1.04
72 | TGGTTCCGCT | 1.13
73 | ATAGAGTAGT | 0.994
74 | TTGATGTCCG | 0.99
75 | ACGACGTTCT | 0.985

Row | Sequence | switch fluorescence ratio
76 | CACTTTTAAT | 1.06
77 | TAGGCCATGC | 1.02
78 | TGCCCATCAC | 1.03
79 | CTTTCTATA | 0.92
80 | TTAGTCACGG | 0.987
81 | CCGTCTAGTT | 0.985
82 | AGGAGGACTT | 1.07
83 | TAAATGTCT | 1.03
84 | AGATTATATG | 0.979
85 | CGGCGAGGCT | 1.04
86 | CAAAAGTCAA | 1.03
87 | GAGTGGAACT | 0.998
88 | ATAACTCCCT | 1.33
89 | CACTGGTTAT | 0.951
90 | AAGCTCCACC | 1.04
91 | CGTCTTCACC | 1
92 | TCGAACATTA | 1.02
93 | CCGGCCCCTT | 1.16
94 | CTTGTCCCCA | 1.02
95 | TGGAATGCCC | 0.953
96 | ACATTGAGTT | 0.955
97 | CAAACAAAGC | 1.03
98 | GCTCTAGGCT | 0.988
99 | GGCCCAAATC | 0.979
100 | AATGGCGGAT | 0.997

Row | Sequence | switch fluorescence ratio
101 | TGACTCACAG | 0.956
102 | GTTGCTAAGT | 0.999
103 | TATGTTTAAG | 0.979
104 | TATGTCAGCG | 1.04
105 | AAGAGATTT | 1.05
106 | TTGTAGCCGG | 1.03
107 | GGCAGGGCGG | 0.999
108 | CTGCCTGCGT | 1.11
109 | GTTGACCATA | 1.04
110 | ATCCACCTCT | 1.05
111 | CCGTCAAGCG | 1.4
112 | TAAGCCAGG | 1.06
113 | CCATGCAAGT | 1.39
114 | TTTTACTCTC | 1.07
115 | TCATTGATGT | 1
116 | GTCGACGATT | 0.967
117 | TAAAAGATCC | 0.978
118 | CCTAGGTCTC | 1.04
119 | AATCTGATTC | 1.01
120 | AAGCTGACAA | 1
121 | CTCATGACAT | 1.02
122 | GATTAAACGC | 1.02
123 | GCGACTTGCA | 1.04
124 | CAACTGGTGT | 1.13
125 | CTAGGCATGA | 1.12

Row | Sequence | switch fluorescence ratio
126 | GCTCACCGGA | 1.03
127 | CGCCGGGAAC | 1.7
128 | GTGTTATGGA | 1.03
129 | GTTGTTGTTC | 0.959
130 | TAATGCCTTA | 0.971
131 | TAAGTGGTAG | 1.01
132 | GCAAAGCTTC | 1.12
133 | AGAGGGGTAG | 1
134 | ATGGGCGTCC | 0.945
135 | GAGAACTCGC | 0.875
136 | TTTAGGACCG | 0.962
137 | CCCGAAGATT | 0.998
138 | AGTTGGCGTA | 0.939
139 | GGGCTGGCTT | 0.987
140 | CATAGCTTAA | 1.09
141 | ATAGATTAAG | 0.987
142 | GTCGGAAATT | 1.03
143 | GACTTGGACC | 1.05
144 | AACTCAGAAA | 2.77
145 | TCCTAAAGAG | 1.02
146 | CGCTGTAGGG | 1.01
147 | CGGGAAGCGG | 1.01
148 | AGGGATTACT | 1.03
149 | ACAGGATCT | 0.979
150 | GTGACAGGA | 0.977

Row | Sequence | switch fluorescence ratio
151 | ACTGCACCCG | 1.35
152 | AGTGCGTACG | 0.995
153 | TCAAACTGAA | 0.983
154 | TACATTTCA | 0.997
155 | CCACGTTTAA | 1.13
156 | GCAAAGGATA | 1.03
157 | CAGAGTGGCC | 1
158 | TACTGTTTTA | 1.04
159 | CGGGTTTTCA | 1.01
160 | TACCTACCGG | 1.05
161 | TTGGCCATAT | 1.04
162 | CGTGTGTAAT | 0.978
163 | GCAGTTTACT | 1.04
164 | ATCTTGCATA | 1.01
165 | CGTAAAGCCC | 1.03
166 | TTGCCACATA | 1.09
167 | TGATATGATG | 1.01
168 | ACTGAAGGCA | 1
169 | TTTAGCTCTC | 1.27
170 | CTGCTCTTA | 0.989
171 | AATTATCTAT | 1.03
172 | TCCGCACCTG | 1.24
173 | TGTTTTAGCA | 1.01
174 | GAATCTATCC | 1.11
175 | TTAACAGCAG | 1.06

Row | Sequence | switch fluorescence ratio
176 | TGTAAAACAT | 1.05
177 | CACATAAAA | 0.994
178 | AAATGCTAGG | 0.998
179 | CTCATAGGTC | 1
180 | GACGCCACGA | 1.74
181 | ATATCTCACA | 1.06
182 | CGACGATAAT | 1.76
183 | TAGATATCCG | 0.986
184 | AATTATCCGT | 1
185 | AACCCTTTTC | 1.09
186 | TCATACTCTG | 1.02
187 | AGGAAAACGG | 1.04
188 | AAGTGCGGCT | 0.958
189 | GGGTAGTTTG | 0.963
190 | TGGGGGAAT | 1.02
191 | TATCTCTGAG | 1.12
192 | CGGACTATGT | 0.999
193 | TGGCGGGTTG | 1.03
194 | TCCCTGACGG | 1.03
195 | CATCGGGTCT | 1.18
196 | CTTAGCGGTG | 0.983
197 | TAAGGAGATA | 1.02
198 | GGGGTCCACC | 0.968
199 | GATCGAGAGC | 0.943
200 | TATTGGTTG | 1.03

Reference: the supplement of paper PMC10126150
